Experimental data reported in patent US10315992B2, “Tetracyline compounds” (Tetraphase Pharmaceuticals, Inc., priority 2012, dated 2019).

system: K. pneumoniae UNT023-1(KPC producing strain); assay: MIC of test articles of the mouse pneumonia study; conditions: Klebsiella pneumoniae

`CCN(CC)[C@@H]1C(O)=C(C(N)=O)C(=O)[C@@]2(O)C(O)=C3C(=O)c4c(O)cc(C5CCCN5)c(C(F)(F)F)c4C[C@H]3C[C@@H]12` (single isomer, unassigned) [Compound S4-14-14-A] and `CCN(C)[C@@H]1C(O)=C(C(N)=O)C(=O)[C@@]2(O)C(O)=C3C(=O)c4c(O)cc(C5CCCN5)c(C(F)(F)F)c4C[C@H]3C[C@@H]12` (single isomer, unassigned) [Compound S4-14-5-A] are the same in MIC: 0.0625 µg/mL for the first, 0.0625 µg/mL for the second.

In the case of `CN(C)c1cc(NC(=O)CNC(C)(C)C)c(O)c2c1C[C@H]1C[C@H]3[C@H](N(C)C)C(O)=C(C(N)=O)C(=O)[C@@]3(O)C(O)=C1C2=O` [Tigecycline, tigecycline], the MIC was 1 µg/mL.
